Measured values: PubChem BioAssay AID1347120 (National Center for Advancing Translational Sciences (NCATS), 2019)
Screen size: about 390,000 compounds; about 930 (0.24%) were called active. The inconclusive results got no clear call from the source; some entries with a clear call stand among them for comparison. Calls follow the shape of the dose curve; as a rule, active = well fitted activation curve with a large enough effect; inconclusive = small, poorly fitted or top-dose-only effect; inactive = no such curve, though single readings can be large or run the other way. Where the call is inconclusive, the potency comes from a doubtful curve fit.

Assay: qHTS for Suppressors of FUS Proteinopathy: Primary screen using FUS-linked yeast assay; also: nearly all actives have a fitted effect of over 55% in size;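 as to growth rescue (activation): plate controls were DMSO vehicle for no effect and reference control for full effect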
Settings: S. cerevisiae FUS-expressing, OD600, 24 h; Potency: growth rescue; growth rescue (activation): at 76.6 µM (top of the series)
Summary of the method: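 Absorbance at 600 nm, taken 24hr after compound addition, measured rescue of FUS-yeast growth at 30C. Induction used 2% galactose with seeding at OD 0.005. Controls: CP55940 from 92uM final, DMSO only.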
Potency is read from the fitted curve at half-maximal effect; tags tell the direction and shape of the fitted curve.

Row | Structure (SMILES) | Potency | growth rescue (activation)
1 | COc1ccc([C@@H]2CC=C(C(=O)O)[C@H](c3ccc(C)cc3)N2S(=O)(=O)c2ccccc2C)cc1 | inconclusive: 25.1 µM [activator, partial curve, poor fit] | –
2 | CC(=O)Nc1ccc(S(=O)(=O)N2CCC(n3c(C)nc4cccnc43)CC2)cc1 | – | inactive: -7.64%
3 | CCC(C)NC(=O)Cn1c(=O)n(-c2cc(OC)cc(OC)c2)c(=O)c2ccccc21 (stereo not drawn) | – | inactive: -4.96%
4 | COc1ccc(-c2noc(C3CCCN(C(=O)Nc4ccc(Cl)cc4)C3)n2)cc1 (stereo not drawn) | inconclusive: 28.2 µM [activator, single point] | –
5 | COc1ccccc1N1CCN(C(=O)c2ccncc2)CC1 | – | inactive: 22.3%
6 | COC(=O)[C@@]1(Cc2ccc(F)cc2)[C@H]2c3cc(C(=O)N4CCCC4)n(CCc4c[nH]c5ccccc45)c3C[C@H]2CN1C(=O)c1ccccc1 | inconclusive: 28.2 µM [activator, partial curve, poor fit] | –
7 | C[C@H](NC(=O)c1nc[nH]c1C(=O)NCCCCCNC(=O)OC(C)(C)C)c1ccccc1 | inconclusive: 28.2 µM [activator, single point] | –
8 | NC(=S)N=Nc1c(O)n(Cc2ccccc2)c2ccccc12 | – | inactive: 2.4%
9 | CCC(C)(C)n1nnnc1C(c1cc2cccc(C)c2[nH]c1=O)N1CCCC1 (stereo not drawn) | active: 31.6 µM | –
10 | CCOc1ccc2nc3c(cc2c1)CN(CCOC)C(=NC)S3 | – | inactive: 3.13%
11 | CCCCn1c(SCC(=O)NCc2ccco2)nc2c(sc3ccccc32)c1=O | active: 10 µM | –
12 | COc1ccc(NCc2nnc(SCC(=O)Nc3cc(C(F)(F)F)ccc3Cl)o2)cc1 | inconclusive: 28.2 µM [activator, single point] | –
13 | Cc1ccc(N2CCN(C(=O)c3cn(C)c4ccc(S(=O)(=O)N5CCC(C)CC5)cc4c3=O)CC2C)cc1 (stereo not drawn) | inconclusive: 50.1 µM [activator, single point] | –
14 | COc1cc(N=c2ssnc2Cl)c(OC)cc1Cl | inconclusive: 35.5 µM [activator, partial curve, poor fit] | –
15 | CCOC(=O)N1CCN(C(=O)C[C@@H]2C[C@@]3(C(=O)OCC)CCCC=C3N(CCc3ccc(OC)c(OC)c3)C2=O)CC1 | inconclusive: 8.91 µM [activator, partial curve, poor fit] | –
16 | c1ccc2cc(Cn3ccc4ccc(-c5ccc6ccn(Cc7ccc8ccccc8c7)c6c5)cc43)ccc2c1 | – | inactive: 33.9%
17 | COc1ccc(NC(=O)Cn2c(=O)n(Cc3ccco3)c(=O)c3sc4ccccc4c32)cc1OC | inconclusive: 50.1 µM [activator, single point] | –
18 | Cc1cc(C(=O)CSc2nnnn2C)c(C)n1-c1ccc2c(c1)OCCO2 | inconclusive: 39.8 µM [activator, single point] | –
19 | CCCCN(CCCC)C(=S)N/N=C/c1c(C)[nH]n(-c2ccccc2)c1=O | – | inactive: 37.3%

Row | Structure (SMILES) | Potency | growth rescue (activation)
20 | CC(C)c1ccc(C(=O)CC2(O)C(=O)N(CCc3ccccc3)c3ccc(Cl)cc32)cc1 (stereo not drawn) | inconclusive: 50.1 µM [activator, single point] | –
21 | CC(C)(C)c1ccc(CC(=O)N2CCC2(C)C(=O)NCc2ccc(Cl)cc2)cc1 (stereo not drawn) | inconclusive: 31.6 µM [activator, single point] | –
22 | COc1ccc([C@@H]2[C@@H]3C(=O)N(C(C)(C)C)C(=O)[C@@H]3[C@]3(Cc4ccccc4)C(=O)N(c4cccc(Cl)c4)C(=O)N23)cc1 | active: 28.2 µM | –
23 | CSc1cccc(N2CC(C(=O)N3CCN(S(=O)(=O)c4ccccc4Cl)CC3)CC2=O)c1 (stereo not drawn) | inconclusive: 28.2 µM [activator, single point] | –
24 | O=c1[nH]c(C2CCN(S(=O)(=O)Cc3ccccc3)CC2)nc2c1nnn2Cc1cccc(Cl)c1 | inconclusive: 28.2 µM [activator, partial curve, poor fit] | –
25 | CCC(=O)N(C)C[C@@H]1[C@H](c2ccc(C3=CCCCC3)cc2)[C@H](CO)N1C(=O)CC | – | inactive: 13.2%
26 | COc1ccc(NC(=O)Cn2cc(S(=O)(=O)c3ccccc3)c(=O)c3cc(C)ccc32)cc1Cl | – | inactive: 9.6%
27 | CC1(C)CC(=O)C=C(Nc2ccccc2NC(=O)c2cc(F)ccc2F)C1 | – | inactive: 0.229%
28 | CCc1ccc(NC(=O)CSC2=Nc3ccccc3C3=NC(CC(=O)NCc4cccs4)C(=O)N23)cc1 (stereo not drawn) | – | inactive: -12.1%
29 | CN(C(=O)c1ccc(NC(=O)Cc2cccc(NC(=O)C3CCCN(C(=O)C4CCCC4)C3)c2)cc1)C1CCCC1 (stereo not drawn) | inconclusive: 31.6 µM [activator, single point] | –
30 | CCOC(=O)[C@]12CCCC=C1N(Cc1cccc3ccccc13)C(=O)[C@H](CC(=O)NCc1ccc(C)o1)C2 | inconclusive: 39.8 µM [activator, single point] | –
31 | COC(=O)C1=C(O)/C(=C\c2cc(C)n(-c3ccccc3C)c2C)N=C1C | inconclusive: 31.6 µM [activator, single point] | –
32 | CCCCOC(=O)Cn1c(=O)n(CC(=O)OCCCC)c2cc(C)ccc21 | inconclusive: 8.91 µM [activator, partial curve] | –
33 | O=C(C[C@H]1C/C=C\CC[C@H](Cc2ccc(F)cc2)C(=O)OC[C@@H]2CCCN2C1=O)N[C@H](CO)Cc1ccccc1 | inconclusive: 22.4 µM [activator, partial curve] | –
34 | Cc1ccc(-n2c(SCC(=O)Nc3ccc(S(=O)(=O)Nc4cc(C)nc(C)n4)cc3)nnc2-c2cccs2)cc1 | inconclusive: 15.8 µM [activator, partial curve, poor fit] | –
35 | CCCC(=O)N1CCN(c2ccc(NC(=O)c3ccc([N+](=O)[O-])o3)cc2Cl)CC1 | inconclusive: 11.2 µM [activator, partial curve, poor fit] | –
36 | COC(=O)c1cc(Cl)c(NC(=O)/C=C/c2ccc(Cl)cc2)cc1OC | inconclusive: 44.7 µM [activator, single point] | –
37 | C=CCSc1nc2sc3c(c2c(=O)n1-c1ccccc1)CCN(C)C3 | – | inactive: 6.87%
38 | CCOC(=O)Cn1c(S(=O)(=O)Cc2ccccc2Cl)nc(-c2ccccc2)c1-c1ccccc1 | inconclusive: 35.5 µM [activator, partial curve, poor fit] | –
